Laboratory results: PubChem BioAssay AID1159614 (National Center for Advancing Translational Sciences (NCATS), 2016)
The campaign covered roughly 45,000 compounds. About 65 (0.1%) were called active. Calls come from the whole dose curve; as a rule, active = well fitted activation curve with a large enough effect; inconclusive = small, poorly fitted or top-dose-only effect; inactive = no such curve, though single readings can be large or run the other way. The list shows a part of the results.

Biological target: Galactocerebrosidase (Homo sapiens) (UniProt P54803)
Assay: A Novel Cell-Based Assay to Identify Small Molecules for B -Galactocerebrosidase; note: 0% is about no effect; nearly all actives have a fitted effect of over 65% in size
Conditions: 145M-Twi-hGALC-G270D cells (Twitcher mouse brain line with human GALC G270D), HMU-beta-Gal fluorescence, 48 h; series mostly up to 57.5 µM; activation: at the top concentration
Procedure, shortened: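 Brain-derived Twitcher mouse 145M-Twi cells stably expressing human GALC-G270D or wild-type GALC, treated live, then residual GALC activity read by fluorescence of HMU-b-Gal substrate (0.1 mM final) in citrate-phosphate buffer pH 5.2 with sodium taurocholate. Signal increase indicates enhancement.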

Chain of UniProt P54803 (P54803 whole entry, looked up): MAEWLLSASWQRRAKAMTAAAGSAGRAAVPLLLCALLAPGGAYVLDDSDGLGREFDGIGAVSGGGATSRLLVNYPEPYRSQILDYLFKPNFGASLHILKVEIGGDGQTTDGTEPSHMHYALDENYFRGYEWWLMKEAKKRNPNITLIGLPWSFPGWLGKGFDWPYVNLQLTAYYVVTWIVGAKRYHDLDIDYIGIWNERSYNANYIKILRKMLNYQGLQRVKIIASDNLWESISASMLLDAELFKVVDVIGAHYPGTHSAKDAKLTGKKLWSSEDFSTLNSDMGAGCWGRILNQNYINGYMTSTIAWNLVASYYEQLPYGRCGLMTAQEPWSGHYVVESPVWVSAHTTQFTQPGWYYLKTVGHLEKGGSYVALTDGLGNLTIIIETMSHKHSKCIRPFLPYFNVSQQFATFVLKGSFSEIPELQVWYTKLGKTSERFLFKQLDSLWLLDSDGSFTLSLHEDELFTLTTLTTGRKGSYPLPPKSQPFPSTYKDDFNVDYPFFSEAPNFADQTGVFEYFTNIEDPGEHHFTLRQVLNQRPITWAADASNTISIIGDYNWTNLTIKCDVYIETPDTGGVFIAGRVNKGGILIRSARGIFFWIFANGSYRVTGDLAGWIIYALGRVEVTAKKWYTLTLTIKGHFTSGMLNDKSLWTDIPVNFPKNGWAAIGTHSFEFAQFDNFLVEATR

activation, inactive:
CCOc1ccc(OC(=O)c2cn(-c3cccc(OC)c3)c(=O)c3ccccc23)cc1 -2.38%, CCOC(=O)C1CCN(C(=O)CN2c3ccc(C(C)C)cc3-c3ccccc3S2(=O)=O)CC1 -4.02%, CC1CCN(C(=O)c2cc3c(=O)n(C)c4ccccc4c3s2)CC1 -7.16%, CC1CCCCN1CCCNC(=O)c1[nH]c2ccccc2c1Sc1ccc(Cl)cc1 (stereo unspecified) -4.57%, COc1ccccc1CNC(=O)CCC1N=C2c3ccccc3N=C(SCC(N)=O)N2C1=O (stereo unspecified) -24.6%, Cc1cccc(CNC(=O)C(=O)Nc2ccccc2C)c1 -0.988%, Fc1ccccc1-n1ncc2c1ncn1nc(-c3ccccc3Cl)nc21 -7.23%, Cc1ccc(CNC(=O)c2ccc(CSCc3ccccc3Cl)o2)cc1 -7.95%, CC(=O)c1cccc(NC(=O)C2=CC(c3ccc4c(c3)OCO4)=NS(=O)(=O)N2C)c1 -8.96%, Cc1ccc(NC(=O)c2c(NC(=O)Cc3ccccc3)sc3c2CCC3)cc1 -9.74%, CCN1C(=O)c2ccccc2Sc2ccc(NC(=O)Nc3ccccc3OC)cc21 -10%, Cc1cccc(C)c1NC(=O)CSc1nc2ncccc2o1 -8.05%, Cc1ccc(S(=O)(=O)NCC(c2ccc(N(C)C)cc2)N2CCc3ccccc32)cc1C (stereo unspecified) -4.35%, CCc1ccc(CNC(=O)C2CCN(c3nc4ccccc4nc3C(F)(F)F)CC2)cc1 -13.6%, CC(=O)N1CCc2cc(CNC(=O)Nc3cc(Cl)ccc3C)ccc21 -5.74%, COc1ccc(Cn2c(CCC(=O)Nc3cccc(OC)c3)nc3cccnc32)cc1 -8.56%, COc1ccc(NC(=O)Cn2c(=O)n(Cc3ccco3)c(=O)c3cc(OC)c(OC)cc32)cc1 -3.14%, CN(C)c1ccc(-c2nc3cnccn3c2Nc2cccc(C(F)(F)F)c2)cc1 2.48%, COc1cccc(CNc2nccn(-c3cc(C)cc(C)c3)c2=O)c1 -8.85%, COCCn1c(CCC(=O)Nc2ccc(C)c(Cl)c2)nc2cccnc21 -14.7%, CCSc1ncc(Cl)c(C(=O)Nc2ccc(S(=O)(=O)N3CCC(C)CC3)cc2)n1 -23.7%, Cc1c(Cl)cccc1NC(=O)Cn1cc(C(=O)C2CCCCC2)c2ccccc21 -17.2%, Clc1ccc2nc(NCc3ccccc3)c3nncn3c2c1 -6.41%, Cc1cc2c(cc1S(=O)(=O)CCC(=O)N1CCCC(C)C1)OCC(=O)N2 (stereo unspecified) -0.814%, Cc1ccc(NC(=O)CSC2=Nc3ccccc3C3=NC(Cc4ccccc4)C(=O)N23)cc1C (stereo unspecified) -43.5%, CCCCN(CCCNC(=O)c1ccc(Sc2ccc(Cl)cc2)c(NC(C)=O)c1)c1ccccc1 -13.5%, Cc1ccc(-n2ncc(C(=O)NCCN3CCOCC3)c2C2CCN(C(=O)OC(C)(C)C)CC2)c(C)c1 -19%, CCc1ccc(NC(=O)CN2CCSc3ccc(S(=O)(=O)N4CCCC4)cc32)cc1 -30%, COC(=O)c1cnn(-c2ccc(C(=O)Nc3ccc(OC(F)(F)F)cc3)cc2)c1N -9.01%, COc1ccc(/C=C/C(=O)c2ccc(OC)cc2OC)cc1 -12.8%, COc1ccc(C(CNC(=O)c2cccc([N+](=O)[O-])c2)N2CCOCC2)cc1 (stereo unspecified) -6.25%, COc1ccc(CCNc2nc(-c3ccc(F)cc3)cc(C(F)(F)F)n2)cc1OC -0.163%, Cc1ccc(Cc2cnc(NC(=O)C3Cc4ccc(C)cc4C(=O)O3)s2)cc1 (stereo unspecified) -9.26%, Cc1ccc(CNC(=O)Cn2c(=O)ccc3cc(S(=O)(=O)N4CCCC4)ccc32)cc1 -16.4%, CC(NC(=O)c1c2c(nc3ccccc13)C(=O)N(C1CCCCC1)C2)c1ccccc1 (stereo unspecified) -14.3%, CCOc1ccc(S(=O)(=O)c2cn(C)c3ccccc3c2=O)cc1 22.5%, CC(C(=O)O)c1ccc(C(=O)c2cccs2)cc1 (stereo unspecified) -14%, CN(C)c1ccc(NC(=O)CN2C(=O)c3ccccc3Sc3ccc(C(=O)N4CCCC4)cc32)cc1 -15.7%, CCOC(=O)C1CCN(C(=O)Cn2ncc3c4ccccc4n(Cc4ccccc4F)c3c2=O)CC1 -4.1%, CCN(C(=O)c1cccn(Cc2ccccc2C)c1=O)c1ccccc1 -3.57%, Cc1ccc(NC(=O)CN2C(=O)CCn3nc(-c4cccn4C)cc32)c(Cl)c1 -4.04%, O=c1n(Cc2ccc(F)cc2)nc2n1-c1cc(Cl)ccc1OC2 -8.23%, Cc1ccc(F)cc1NC(=O)c1ccc(Cn2nc(N3CCN(c4ccccc4)CC3)ccc2=O)o1 -9.38%, Cc1nn(CCCC(=O)NCc2cccc(Cl)c2)c(=O)c2c1sc1ccccc12 -15.1%, Cc1nnc(NC(=O)CSc2nnc3c(n2)[nH]c2ccccc23)s1 -11%, O=C(Cn1c(-c2cccs2)cc2cc(F)ccc21)NCCCN1CCN(c2ccccc2F)CC1 -8.19%, Cc1cccc(N2CCN(CCCNC(=O)c3sc4ncccc4c3-n3cccc3)CC2C)c1 (stereo unspecified) -26.4%, Cc1oc(-c2ccc(C(=O)NCCc3ccc(Cl)cc3)cc2)nc1CSc1ccccc1 -16.7%, COc1ccc(-n2nc(C(=O)NCCc3ccc(OC)c(OC)c3)c3c4ccccc4n(C)c3c2=O)cc1Cl -5.34%, COc1ccc(-c2cn3nc(N4CCC(C(=O)Nc5ccc(Cl)cc5C)CC4)sc3n2)cc1 4.44%, O=C(Cn1cc(SCc2ccccc2)c2ccccc21)N1CCCCCC1 -5.96%, CCOc1ccccc1CNC(=O)c1cnc2c(-c3ccc(OCC)c(OCC)c3)c(C)nn2c1C -7.97%, COc1ccc(NC(=O)C2CCN(c3nc4ccccc4nc3C(F)(F)F)CC2)cc1 -13.4%, O=C(NCc1ccccc1)c1ccc2c(c1)N(Cc1cccc(Cl)c1)C(=O)c1ccccc1S2(=O)=O -10.3%, Cc1ccc(S(=O)(=O)n2nc(C)c(S(=O)(=O)N3CCC(C)CC3)c2C)cc1 -2.25%, CCn1ccc2cc(S(=O)(=O)N3CCC(C(=O)NCc4ccc(OC)cc4)CC3)ccc21 -16.5%, CCOC(=O)C1CCC(CN(Cc2c(Cl)cccc2Cl)S(=O)(=O)c2ccc(Cl)cc2)CC1 (stereo unspecified) -15.3%, Cc1ccccc1CN1C(=O)c2ccccc2Sc2ccc(C(=O)OCc3ccco3)cc21 -17.6%, Cc1ccc2nc(-c3ccc(Cl)c(NC(=O)c4cccc([N+](=O)[O-])c4C)c3)oc2c1 -1.28%, Cc1ccc(-c2nc(SCC(=O)N3CCc4ccccc43)c3c(=O)n(C)c(=O)n(C)c3n2)cc1 -3.56%, Cc1ccc(N2CCN(c3c(CN4CCCC4)c(=O)oc4ccccc34)CC2)c(C)c1 -14.8%
